This note sets out measurements from paper PMC4336329 (PLoS ONE, 2015).

Among all 310,000 compounds or so, about 14,000 (4.5%) showed an effect of 50% or more. Effects have a minus sign here. The list shows a part of the results.
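Also: peak tail current of the secondary pulse compared with the same well before compound.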

Chain of human ether-à-go-go-related gene (hERG) potassium channel (Q12809 whole entry, looked up): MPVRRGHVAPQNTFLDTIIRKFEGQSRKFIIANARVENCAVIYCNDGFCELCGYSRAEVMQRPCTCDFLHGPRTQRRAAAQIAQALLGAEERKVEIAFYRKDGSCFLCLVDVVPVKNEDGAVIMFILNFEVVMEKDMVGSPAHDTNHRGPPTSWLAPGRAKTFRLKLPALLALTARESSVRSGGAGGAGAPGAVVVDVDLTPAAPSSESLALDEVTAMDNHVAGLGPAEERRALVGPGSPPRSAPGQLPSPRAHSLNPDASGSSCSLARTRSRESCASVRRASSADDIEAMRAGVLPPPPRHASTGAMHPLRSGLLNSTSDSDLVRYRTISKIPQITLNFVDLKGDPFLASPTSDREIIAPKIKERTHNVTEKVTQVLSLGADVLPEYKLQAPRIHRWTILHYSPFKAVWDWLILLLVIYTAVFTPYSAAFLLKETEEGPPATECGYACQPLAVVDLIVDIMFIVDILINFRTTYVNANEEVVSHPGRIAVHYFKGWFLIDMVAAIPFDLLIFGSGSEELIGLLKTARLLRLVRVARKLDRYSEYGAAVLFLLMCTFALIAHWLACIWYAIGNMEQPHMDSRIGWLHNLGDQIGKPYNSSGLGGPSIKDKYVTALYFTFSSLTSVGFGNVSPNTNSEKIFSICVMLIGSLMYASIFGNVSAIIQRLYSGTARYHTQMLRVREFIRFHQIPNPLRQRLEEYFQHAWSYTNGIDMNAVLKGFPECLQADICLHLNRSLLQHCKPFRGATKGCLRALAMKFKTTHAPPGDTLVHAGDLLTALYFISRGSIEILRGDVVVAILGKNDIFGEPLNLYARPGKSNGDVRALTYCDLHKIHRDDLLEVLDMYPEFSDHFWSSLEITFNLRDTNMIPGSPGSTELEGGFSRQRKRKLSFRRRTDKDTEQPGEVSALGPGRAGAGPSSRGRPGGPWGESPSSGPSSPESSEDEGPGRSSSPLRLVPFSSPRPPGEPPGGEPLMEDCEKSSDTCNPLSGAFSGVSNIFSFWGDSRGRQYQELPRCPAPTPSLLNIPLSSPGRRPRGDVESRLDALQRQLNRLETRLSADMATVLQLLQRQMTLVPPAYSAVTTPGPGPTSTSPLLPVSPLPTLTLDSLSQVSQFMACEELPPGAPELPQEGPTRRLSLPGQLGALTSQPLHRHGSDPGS

The assay addresses human ether-à-go-go-related gene (hERG) potassium channel (human, UniProt Q12809). Nature of the assay: primary screen, population patch clamp on CHO cells stably expressing hERG.
For `COc1ccc(NS(=O)(=O)c2cc(NC(=O)c3cnc(C)cn3)ccc2N2CCCCC2)cc1`, the “hERG current change (%, negative = inhibition) at 10uM” value is 15.3%.
The figure for `Cc1cc(C)n2nc(C(=O)OCC(=O)N3CCC3)nc2n1` is 21.4%; for `Cc1cc(C(=O)NC2CCCc3c2cnn3-c2ccc(C)c(C)c2)nc(C)n1` (stereo not shown) it is -4.32%.
The figure for `COc1ccc(CCNC(=O)CN2CCN(c3ccccc3Cl)CC2)cc1` is -19%.
`Cc1ccc(OCCNC(=O)CNC(=O)c2ccc(C)cc2)cc1`: the “hERG current change (%, negative = inhibition) at 10uM” value was 9.37%.
Take `Cc1cc(OC(=O)c2ccc(S(=O)(=O)N3CCCCC3)cc2)c([N+](=O)[O-])c(=O)[nH]1`: the “hERG current change (%, negative = inhibition) at 10uM” value is on record as 25.7%.
Regarding `CCCNC(=O)C1CCN(S(=O)(=O)c2ccc(Br)cc2)CC1`, the “hERG current change (%, negative = inhibition) at 10uM” value is recorded as -1.78%.
With `O=c1c(Cl)c(N2CCNCC2)cnn1C12CC3CC(CC(C3)C1)C2`, the “hERG current change (%, negative = inhibition) at 10uM” value was found to be 10.4%.
On to `COc1ccccc1N1CCN(C(=O)c2cc3c(s2)CCC3)CC1`, for which the “hERG current change (%, negative = inhibition) at 10uM” value was -16%.
For the molecule `O=C(CSc1nc(C2CCCCC2)n(-c2ccccc2)n1)NCC(F)(F)F`, the “hERG current change (%, negative = inhibition) at 10uM” value is recorded as -19.6%.
Regarding `COc1ccc(C(CNC(=O)COc2cc(C)ccc2Cl)N2CCCCC2)cc1` (stereo not shown), the “hERG current change (%, negative = inhibition) at 10uM” value is given as 1.57%.
The figure for `O=C(Nc1cccc2ccccc12)N1CCc2ccccc2C1` is -11.4%; for `Cc1cc(/C=C2\C(=O)NC(=O)N(c3ccc(Br)cc3)C2=O)c(C)n1C` it is -3.27%.
For the molecule `Cc1nc(-c2ccccc2)sc1C(=O)NN`, the “hERG current change (%, negative = inhibition) at 10uM” value is on record as 25.2%.
Turning to `CCC1(CC)NC(=O)N(CC(=O)N2CCN(c3ccccc3F)CC2)C1=O`, the “hERG current change (%, negative = inhibition) at 10uM” value turned out to be 9.58%.
Take `O=C(Nc1ccc([N+](=O)[O-])cc1)N1CCN(C(=O)C2CCCO2)CC1` (stereo not shown): the “hERG current change (%, negative = inhibition) at 10uM” value was determined as 0.636%.
As for `Cc1ccnn1CC(=O)N/N=C/c1ccc([N+](=O)[O-])s1`, the “hERG current change (%, negative = inhibition) at 10uM” value is -3.9%.
Regarding `COc1ccc(C2NCc3ccc4c(c3-n3cccc32)OCO4)cc1OC.Cl` (stereo not shown), the “hERG current change (%, negative = inhibition) at 10uM” value is -19.7%.
As to `COc1ccc(OC)c(S(=O)(=O)n2ccnc2C)c1`, the “hERG current change (%, negative = inhibition) at 10uM” value is given as 0.0552%.
Take `CCc1c(-c2n[nH]c(=S)n2Cc2ccccc2)csc1C`: the “hERG current change (%, negative = inhibition) at 10uM” value was -15%.
On to `CCOC(=O)C1=C(COC(=O)/C=C/c2ccco2)NC(=O)NC1C` (stereo not shown), for which the “hERG current change (%, negative = inhibition) at 10uM” value came to 2.93%.
The figure for `COc1ccc(C(=O)Oc2cccnc2)cc1OC` is -26.6%; for `Cc1cc(OCC(=O)N2CCN(c3ccccn3)CC2)cc(C)c1Br` it is -32.3%; for `C[C@H]1CCC[C@]2(CC(=O)c3cc(F)ccc3O2)C1` it is -11.9%.
Under `CCCCCCn1c(CN2CCCC(C)C2)nc2c1c(=O)n(C)c(=O)n2C` (stereo not shown) stands -58.1%; under `CCN=C(NCC)SC1CC(=O)N(CCc2ccccc2)C1=O` (stereo not shown), 18.2%.
With `COc1cc2c(cc1OC)C(C)N(C(=O)c1ccc(Br)o1)CC2` (stereo not shown), the “hERG current change (%, negative = inhibition) at 10uM” value was -16.1%.
With `O=C(CSc1nnnn1-c1cccc2ccccc12)Nc1ccc(N2CCOCC2)c(Cl)c1`, the “hERG current change (%, negative = inhibition) at 10uM” value is recorded as 2.68%.
As to `CC(C)=CCc1c(O)ccc(C2COc3c(CC=C(C)C)c(O)cc(O)c3C2=O)c1O` (stereo not shown), the “hERG current change (%, negative = inhibition) at 10uM” value is listed as 14.1%.
Under `Cc1c(Br)c(C(F)(F)F)nn1CC(=O)NCCCn1ccnc1` stands -37.5%; under `CCOC(=O)C1=C(C)OC(N)=C(C#N)C1c1cc2cc(C)ccc2nc1N1CCCCC1` (stereo not shown), -0.228%.
Take `COc1cc(SC)ccc1C(=O)N1CC(C)OC(C)C1` (stereo not shown): the “hERG current change (%, negative = inhibition) at 10uM” value worked out at 34%.
For `Cc1ccc(C(=O)Nc2cccc(C(=O)NC3CCCCC3)c2)cc1`, the “hERG current change (%, negative = inhibition) at 10uM” value was found to be 8.36%.
Consider `COc1cc(C2SCC(=O)N2CCCN(C)C)cc(OC)c1OC.Cl` (stereo not shown), for which the “hERG current change (%, negative = inhibition) at 10uM” value is given as 17.3%.
In the case of `CCCCNC(=O)CC1C(=O)N(Cc2ccccc2)C(C)c2nc3ccccc3n21` (stereo not shown), the “hERG current change (%, negative = inhibition) at 10uM” value is given as -10.6%.
For the molecule `Fc1cccc(Cc2noc(CN3CCCN(C4Cc5ccccc5C4)CC3)n2)c1`, the “hERG current change (%, negative = inhibition) at 10uM” value was -86.5%.
For `CC(C)Cn1c(-c2ccc(C#N)cc2)nc2c1c(=O)[nH]c(=O)n2CC(C)C`, the “hERG current change (%, negative = inhibition) at 10uM” value is reported as -28.3%.
Take `CN(c1ccccc1C(=O)NCC1CCCO1)S(C)(=O)=O` (stereo not shown): the “hERG current change (%, negative = inhibition) at 10uM” value is reported as 14.1%.
The figure for `CC(C)N=C(NS(=O)(=O)c1ccccc1)C(Cl)(Cl)Cl` is -5.84%; for `CN1CCN(CC(=O)Nc2nnc(-c3cccs3)s2)CC1` it is 0.0993%.
Consider `COc1ccc(NC(=O)c2ccc(OC)cc2)cc1`, for which the “hERG current change (%, negative = inhibition) at 10uM” value is reported as -30%.
The figure for `COC(=O)c1cccc(NC(=O)/C=C/c2ccc3c(c2)OCO3)c1` is -22.2%; for `N=c1c(C(=O)NCCN2CCOCC2)cc2c(=O)n3ccccc3nc2n1CCc1ccccc1` it is -72.5%; for `O=C(CSCc1ccccc1)Nc1cccc(F)c1` it is -4.88%.
Take `COc1ccc(OCC2CNC(=O)O2)cc1` (stereo not shown): the “hERG current change (%, negative = inhibition) at 10uM” value is recorded as -26.2%.
Under `COCCNc1ccc(-c2n[nH]c(=O)c3ccccc23)cc1[N+](=O)[O-]` stands 9.51%; under `CN1C(=C2C(=O)OC(C)(C)OC2=O)Sc2ccccc21`, 1.31%; under `CCOC(=O)C1(CCOc2ccccc2)CCN(CC(O)CO)CC1` (stereo not shown), -26.9%.
In the case of `Cl.c1ccc(CCCN2CCN(CCOC(c3ccccc3)c3ccccc3)CC2)cc1`, the “hERG current change (%, negative = inhibition) at 10uM” value is given as -71.8%.
Regarding `CC(OC(=O)/C(C#N)=C/c1ccc(N(C)C)cc1)C(=O)NCc1ccco1` (stereo not shown), the “hERG current change (%, negative = inhibition) at 10uM” value is recorded as 11.8%.
With `CCOc1ccc(NC(=O)CN2C(=O)CCSc3ccc(S(=O)(=O)N4CCCC4)cc32)cc1`, the “hERG current change (%, negative = inhibition) at 10uM” value is reported as -7.71%.
For `Nc1n[nH]c(C(F)(F)F)c1-c1ccccc1`, the “hERG current change (%, negative = inhibition) at 10uM” value is listed as 1.9%.
As for `C=CCn1c(C)c(C=C2C(=O)NC(=O)NC2=O)c2ccccc21`, the “hERG current change (%, negative = inhibition) at 10uM” value was found to be 17.3%.
Take `Cc1cccc(C(=O)Nc2sc3c(c2C(=O)O)CCCC3)c1`: the “hERG current change (%, negative = inhibition) at 10uM” value came to 38.1%.
`O=S(=O)(c1cccc(-c2cn3cccnc3n2)c1)N1CCOCC1`: the “hERG current change (%, negative = inhibition) at 10uM” value was -6.12%.
Take `COc1ccc(CCN(C)Cc2ccc(C(=O)Nc3ccccc3)cc2)cc1OC`: the “hERG current change (%, negative = inhibition) at 10uM” value is reported as -67.3%.
For `Cc1ccc(C(=O)CSc2ccc(-c3ccncc3)nn2)cc1`, the “hERG current change (%, negative = inhibition) at 10uM” value is given as 6.33%.
Take `CCCn1cc(CN2CCC(N3CCC(C(=O)N4CCOCC4)CC3)CC2)c(C)n1`: the “hERG current change (%, negative = inhibition) at 10uM” value was 8.86%.
